# Results: the supplement of paper PMC10037445
# In all, about 2,900 compounds were measured (“IRF Lucia reporter activity, fold change vs agonist alone”: median about 0.9, highest 2% from about 2.8 on). This is one part of the list.
# Key:
# RAW-Dual [1] = test: IRF Lucia reporter activity, fold change vs agonist alone; cytotoxicity flag (confluency mask): not cytotoxic; higher = enhanced IRF activity
# Summary of the method: (§1)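 RAW-Dual macrophages (50,000 cells/well in DMEM, 384-well plates) received 50 nL of library stock by pin tool, then a PRR agonist 1 h later, and were kept at 37 °C, 5% CO2. After 20 hours, supernatant was read for IRF by QuantiLuc luminescence and for NF-κB by QuantiBlue absorbance at 620 nm. Reporter activity is fold change over agonist-alone wells. Cytotoxic wells had IncuCyte confluency below 70% of agonist controls in both mask sets.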
# RAW-Dual [2] = test: IRF Lucia reporter activity, fold change vs agonist alone; higher = enhanced IRF activity; details: library stock concentration (final ~1000-fold dilution): 10 mM, agonist: MPLA (TLR4) […]
# Summary of the method: as §1
# RAW-Dual [3] = test: IRF Lucia reporter activity, fold change vs agonist alone; cytotoxicity flag (confluency mask): cytotoxic (confluency <70% of control); higher = enhanced IRF activity
# Summary of the method: as §1
# [4] = agonist: 3'3'-cGAMP (STING) 10 ug/mL
# [5] = cytotoxicity flag (confluency mask): not cytotoxic
# [6] = cytotoxicity flag (confluency mask): cytotoxic (confluency <70% of control)
smiles,measurement,setting,value
CC(NC(=O)C(NC(=O)OCc1ccccc1)C(C)C)C(=O)NC(CC(=O)O)C(=O)CF (centres undefined) (library stock concentration (final ~1000-fold dilution): 10 mM),IRF Lucia reporter activity,RAW-Dual [1]; [4],0.946
same,IRF Lucia reporter activity,RAW-Dual [1]; agonist: LPS (TLR4) 0.1 ug/mL,0.949
CC(C)(NS(=O)(=O)c1ccc2c(Cl)cnc(NC(=N)N)c2c1)C(=O)O.Cl (library stock concentration (final ~1000-fold dilution): 10 mM),IRF Lucia reporter activity,RAW-Dual [1]; [4],1.03
same,IRF Lucia reporter activity,RAW-Dual [1]; agonist: LPS (TLR4) 0.1 ug/mL,1.23
CCOc1cc(N)c(Cl)cc1C(=O)NCC1CN(Cc2ccc(F)cc2)CCO1.O=C(O)CC(O)(CC(=O)O)C(=O)O (centres undefined) (library stock concentration (final ~1000-fold dilution): 10 mM),IRF Lucia reporter activity,RAW-Dual [1]; [4],0.997
same,IRF Lucia reporter activity,RAW-Dual [1]; agonist: LPS (TLR4) 0.1 ug/mL,0.921
CCOc1cc(N)c(Cl)cc1C(=O)NCC1CN(Cc2ccc(F)cc2)CCO1.O=C(O)CC(O)(CC(=O)O)C(=O)O (centres undefined),IRF Lucia reporter activity,RAW-Dual [2]; [5],1.02
C=CC(=O)Nc1cccc(Oc2nc(Nc3ccc(N4CCN(C)CC4)cc3)ncc2Cl)c1,IRF Lucia reporter activity,RAW-Dual [2]; [5],0.1
C=CC(=O)Nc1cccc(Oc2nc(Nc3ccc(N4CCN(C)CC4)cc3)ncc2Cl)c1 (library stock concentration (final ~1000-fold dilution): 10 mM),IRF Lucia reporter activity,RAW-Dual [1]; [4],0.0139
same,IRF Lucia reporter activity,RAW-Dual [1]; agonist: LPS (TLR4) 0.1 ug/mL,0.0488
O=C(Oc1cccc(F)c1OC(=O)c1cccc(O)c1)c1cccc(O)c1 (library stock concentration (final ~1000-fold dilution): 10 mM),IRF Lucia reporter activity,RAW-Dual [3]; [4],0.121
same,IRF Lucia reporter activity,RAW-Dual [3]; agonist: LPS (TLR4) 0.1 ug/mL,0.903
CCCCC(CC)COC(=O)CC(C(=O)OCC(CC)CCCC)S(=O)(=O)O (centres undefined),IRF Lucia reporter activity,RAW-Dual [2]; [6],1.07
CCCCC(CC)COC(=O)CC(C(=O)OCC(CC)CCCC)S(=O)(=O)O (centres undefined) (library stock concentration (final ~1000-fold dilution): 10 mM),IRF Lucia reporter activity,RAW-Dual [3]; [4],1.07
same,IRF Lucia reporter activity,RAW-Dual [3]; agonist: LPS (TLR4) 0.1 ug/mL,1.34
C=CC1CN2CCC1CC2C(O)c1ccnc2ccc(OC)cc12.C=CC1CN2CCC1CC2C(O)c1ccnc2ccc(OC)cc12.O.O.O=S(=O)(O)O (centres undefined),IRF Lucia reporter activity,RAW-Dual [2]; [5],1.02
C=CC1CN2CCC1CC2C(O)c1ccnc2ccc(OC)cc12.C=CC1CN2CCC1CC2C(O)c1ccnc2ccc(OC)cc12.O.O.O=S(=O)(O)O (centres undefined) (library stock concentration (final ~1000-fold dilution): 10 mM),IRF Lucia reporter activity,RAW-Dual [1]; [4],0.484
same,IRF Lucia reporter activity,RAW-Dual [1]; agonist: LPS (TLR4) 0.1 ug/mL,1.23
NC(CO)(CO)CO.O=C(c1ccccc1)c1ccc2n1CCC2C(=O)O (centres undefined) (library stock concentration (final ~1000-fold dilution): 10 mM),IRF Lucia reporter activity,RAW-Dual [1]; [4],1
same,IRF Lucia reporter activity,RAW-Dual [1]; agonist: LPS (TLR4) 0.1 ug/mL,0.974
NC(CO)(CO)CO.O=C(c1ccccc1)c1ccc2n1CCC2C(=O)O (centres undefined),IRF Lucia reporter activity,RAW-Dual [2]; [5],1.06
CNCCC(Oc1ccc(C(F)(F)F)cc1)c1ccccc1.Cl (centres undefined) (library stock concentration (final ~1000-fold dilution): 10 mM),IRF Lucia reporter activity,RAW-Dual [3]; [4],0.863
same,IRF Lucia reporter activity,RAW-Dual [3]; agonist: LPS (TLR4) 0.1 ug/mL,0.665
CNCCC(Oc1ccc(C(F)(F)F)cc1)c1ccccc1.Cl (centres undefined),IRF Lucia reporter activity,RAW-Dual [2]; [6],1.52
COc1cn(-c2ccc(-n3cccn3)cc2F)nc(-c2ccnn2-c2ccccc2)c1=O (library stock concentration (final ~1000-fold dilution): 10 mM),IRF Lucia reporter activity,RAW-Dual [1]; [4],1.3
same,IRF Lucia reporter activity,RAW-Dual [1]; agonist: LPS (TLR4) 0.1 ug/mL,1.01
COC(=O)NC(C(=O)NC(Cc1ccccc1)C(O)CN(Cc1ccc(-c2ccccn2)cc1)NC(=O)C(NC(=O)OC)C(C)(C)C)C(C)(C)C (centres undefined),IRF Lucia reporter activity,RAW-Dual [2]; [5],1.03
COC(=O)NC(C(=O)NC(Cc1ccccc1)C(O)CN(Cc1ccc(-c2ccccn2)cc1)NC(=O)C(NC(=O)OC)C(C)(C)C)C(C)(C)C (centres undefined) (library stock concentration (final ~1000-fold dilution): 10 mM),IRF Lucia reporter activity,RAW-Dual [1]; [4],1.04
same,IRF Lucia reporter activity,RAW-Dual [1]; agonist: LPS (TLR4) 0.1 ug/mL,1.12
Cl.Cl.Fc1cc(-c2cccc3ncc(-c4cnn(C5CCNCC5)c4)nc23)cc(F)c1CN1CCOCC1,IRF Lucia reporter activity,RAW-Dual [2]; [5],1.15
Cl.Cl.Fc1cc(-c2cccc3ncc(-c4cnn(C5CCNCC5)c4)nc23)cc(F)c1CN1CCOCC1 (library stock concentration (final ~1000-fold dilution): 10 mM),IRF Lucia reporter activity,RAW-Dual [1]; [4],1.03
same,IRF Lucia reporter activity,RAW-Dual [1]; agonist: LPS (TLR4) 0.1 ug/mL,0.0282
Cc1cn(-c2cc(NC(=O)c3ccc(C)c(Nc4nccc(-c5cccnc5)n4)c3)cc(C(F)(F)F)c2)cn1.Cl (library stock concentration (final ~1000-fold dilution): 10 mM),IRF Lucia reporter activity,RAW-Dual [1]; [4],0.448
same,IRF Lucia reporter activity,RAW-Dual [1]; agonist: LPS (TLR4) 0.1 ug/mL,1.55
Cc1cn(-c2cc(NC(=O)c3ccc(C)c(Nc4nccc(-c5cccnc5)n4)c3)cc(C(F)(F)F)c2)cn1.Cl,IRF Lucia reporter activity,RAW-Dual [2]; [5],2.17
CCN(CC)CCCC(C)Nc1c2ccc(Cl)cc2nc2ccc(OC)cc12.Cl.Cl (centres undefined) (library stock concentration (final ~1000-fold dilution): 10 mM),IRF Lucia reporter activity,RAW-Dual [3]; [4],0.643
same,IRF Lucia reporter activity,RAW-Dual [3]; agonist: LPS (TLR4) 0.1 ug/mL,0.0599
CCN(CC)CCCC(C)Nc1c2ccc(Cl)cc2nc2ccc(OC)cc12.Cl.Cl (centres undefined),IRF Lucia reporter activity,RAW-Dual [2]; [6],0.84
COCCNC(=O)Nc1ccc2nc(-c3cccs3)c(-c3cccs3)nc2c1 (library stock concentration (final ~1000-fold dilution): 10 mM),IRF Lucia reporter activity,RAW-Dual [3]; [4],0.0185
same,IRF Lucia reporter activity,RAW-Dual [3]; agonist: LPS (TLR4) 0.1 ug/mL,0.19
Cc1cc(C(=O)Nc2nc3cccc(Cl)c3n2C2CCCCN(C(=O)/C=C/CN(C)C)C2)ccn1 (centres undefined) (library stock concentration (final ~1000-fold dilution): 10 mM),IRF Lucia reporter activity,RAW-Dual [1]; [4],0.15
same,IRF Lucia reporter activity,RAW-Dual [1]; agonist: LPS (TLR4) 0.1 ug/mL,0.668
CC(C)c1ccccc1Cc1cc(C(=O)Nc2ccc(S(=O)(=O)c3ccccc3C(C)(C)C)cc2)c(O)c(O)c1O (library stock concentration (final ~1000-fold dilution): 10 mM),IRF Lucia reporter activity,RAW-Dual [1]; [4],0.0931
same,IRF Lucia reporter activity,RAW-Dual [1]; agonist: LPS (TLR4) 0.1 ug/mL,0.897
